Experimental data from the supplement of paper PMC10126150.
Sequences with one replicate were seen in a single cluster, so their values are uncertain.

Test system: ATP
Experiment: switch fluorescence ratio, 500 uM ATP over buffer (Cy3 cluster intensity, sum of 5 cycles each) (fold (ratio)); higher = stronger signal-on switching upon ATP binding; sequences stand for … in TCGTCGGCAGCGTCAGATGTGTATAAGAGACAGTTTTTTTTTTTTTTTTTTTTTTTTT…TC
Details: aptamer strand: ATP DNA aptamer (quencher-CACCTGGGGGAGTATTGCGGAGGAAGG + anchor), 100 nM annealed; ATP concentration: 500 uM; one replicate
Outline: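 Switching-strand clusters labelled with Cy3 on a modified Illumina MiSeq flow-cell were annealed to 100 nM quencher-labelled ATP aptamer, imaged in selection buffer, and re-imaged after 15 min with 500 uM ATP at 22 °C. This was done over five cycles with NaOH stripping and re-annealing in between. The fluorescence ratio is summed target-cycle over summed buffer-cycle Cy3 intensity per cluster, averaged per switch-domain sequence, excluding clusters outside 100-1000 RFU.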
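Also: ATP exposure 15 min at 22 °C before imaging.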

| Sequence | switch fluorescence ratio |
| --- | --- |
| CCGTACGGGT | 0.954 |
| GATGGAGCAT | 1.22 |
| TTCTTTCTTG | 1.31 |
| GACTGGAGCT | 1.16 |
| CTCGTAAGGC | 2.05 |
| AAATGTTGAC | 1.02 |
| AAGAACATGG | 0.938 |
| GACATAGAT | 1.02 |
| GGGGCCTGCA | 0.967 |
| CTTTGTTGTG | 0.971 |
| TCTTCTGAGT | 0.976 |
| CGGATAACGG | 0.947 |
| GCTTAGTCG | 0.923 |
| AGTGCGACTG | 0.955 |
| AAGTTTTAGT | 1.01 |
| ACTCAAAGCC | 1.05 |
| AAAATAATGT | 0.95 |
| GATGATGAGT | 1.01 |
| TCGGGCTTAT | 1.02 |
| GTTATTGGC | 0.952 |
| CCAGTGGCGG | 0.974 |
| TGTATGTTAA | 1.01 |

| Sequence | switch fluorescence ratio |
| --- | --- |
| AAGGACGTTT | 1.04 |
| CTCACTTAG | 1.08 |
| GAGGCGCGCT | 1.07 |
| TAAACGAAG | 1.01 |
| TATTGCGGTA | 0.965 |
| ATGGAAACGT | 1.07 |
| CAGCGGAACC | 1.08 |
| CTTTTATGAC | 1.02 |
| CAACTATTAG | 1.01 |
| GCGACTATAT | 1.16 |
| TTGTAGATGA | 0.996 |
| ACAGCTCCTT | 1.04 |
| TGGTCTGTA | 1.02 |
| GAAGTTGAAC | 0.979 |
| CCCGTGTCGG | 1.06 |
| TCATTAATGA | 1.01 |
| TAAGTCCACA | 1.09 |
| AGTAACCTGC | 1.1 |
| GCGCATGCG | 0.978 |
| TGGCCCTCGT | 1.05 |
| TCTAAGTCTG | 1.03 |
| GCATCGGATA | 1.02 |

| Sequence | switch fluorescence ratio |
| --- | --- |
| CTCGTAGGGC | 0.941 |
| GACGTACTTT | 1.61 |
| GATTTTCTCG | 0.979 |
| GTCTGAAGTG | 0.981 |
| TAAGCCAGT | 0.974 |
| CGATGGGGAT | 1.01 |
| CGGCATCTAG | 1.01 |
| GGCGTGTGCA | 1.01 |
| CGTTTGGCCT | 1.06 |
| TCTGTTACGA | 1.04 |
| TCGTTTTACG | 1.03 |
| GCTTCTAATT | 1.01 |
| ACGATGTGTC | 1.03 |
| GGAAGATAGT | 0.995 |
| ATGTTGATCA | 1.03 |
| GAGCTACTGG | 1.04 |
| CTCAGGAAGC | 1.47 |
| AAATCTACTT | 1.03 |
| TACACAATGG | 1.22 |
| TCTTTTAT | 1.03 |
| CCGCACGGGG | 1.45 |
| TTTATCTCCG | 1.16 |

| Sequence | switch fluorescence ratio |
| --- | --- |
| CTTGCATCG | 1.04 |
| GGGAATCATA | 1.01 |
| ATGACACTGT | 1.04 |
| ACACTGGTGT | 1.08 |
| GGTGTTCCTA | 0.983 |
| ACGGTCGCGC | 0.969 |
| ACAGTGGGTC | 1.01 |
| TGTGTACCCG | 1.01 |
| TCGATTGAAT | 0.964 |
| CTACTCGCGC | 1.35 |
| CATACAAATT | 0.997 |
| TAATGTTTCA | 1.01 |
| CTGTGGAGGA | 1 |
| AAGTCTGGTG | 0.931 |
| AAGGACTGGG | 0.937 |
| CGTCAAAGGT | 1 |
| ATGTTGACTC | 1.03 |
| GAGTGGTATC | 1.09 |
| TCGCAACGTG | 1.03 |
